The record followed here is PubChem BioAssay AID463173 (ICCB-Longwood Screening Facility, Harvard Medical School, 2010).

About 1,700 (3.3%) of roughly 52,000 compounds were called active. No stated cut-off is given here; in the data, active means survival mostly below about 52% (no sharp cut-off); inactive means mostly above about 56%. Some of the results follow.

In this assay the test system is Wild type. As to the kind of experiment: growth inhibition of S. aureus wild type versus tarO mutant, primary screen, teichoic acid synthesis inhibitors, RN4220, OD600 (AID 463173). The following applies: S. aureus RN4220 wild type/DeltatarO growth, OD600, 18 h, active compounds read low, screened at 18.75 µg/mL (by protocol).
As for `CC(NC(=O)CCNS(=O)(=O)c1cccc2nsnc12)c1ccccc1` (stereo not given), the survival was inactive: 68%.

Turning to `COc1ccc(Cn2nnnc2CN(Cc2ccc(C)cc2)Cc2cc3cc4c(cc3[nH]c2=O)OCO4)cc1`, the survival was inactive: 101%.

For `Cc1cc(C)n(C(C)CC(=O)NCc2ccc(N(C)C)cc2)n1` (stereo not given), the survival was inactive: 70%.

For the molecule `COC(=O)c1cc2sccc2n1Cc1nc(-c2ccc(Cl)cc2)oc1C`, the survival was inactive: 82%.

For the molecule `CCc1ccccc1NC(=O)c1ccc2c(c1)N(Cc1cc(C)ccc1C)C(=O)c1ccccc1S2(=O)=O`, the survival was inactive: 93%.

As for `N#CC(C#N)=Cc1cn(-c2ccccc2)nc1C12CC3CC(CC(C3)C1)C2`, the survival was inactive: 106%.

As to `CCC(=O)N/N=C/c1ccc(-c2ccc(Cl)cc2)o1`, the survival was inactive: 106%.

As for `CCOCCCn1c(SCC(=O)Nc2ccc(C)cc2)nc2ccccc2c1=O`, the survival is inactive: 83%.

As for `COc1cccc(C(c2c(O)cc(C)n(Cc3ccco3)c2=O)N2CCN(c3ccccc3)CC2)c1` (stereo not given), the survival is inactive: 54%.

Turning to `O=C(CSc1nccn1Cc1ccc(Cl)cc1)Nc1ccc2c(c1)OCCO2`, the survival was inactive: 69%.

Take `COc1cc(Cl)c(C)cc1NC(=O)Cn1ncc2c([nH]c3ccccc32)c1=O`: the survival is inactive: 55%.

With `COc1ccccc1NC(=O)C1=C(C)Nc2nc(SCc3ccccc3C)nn2C1CC(C)C` (stereo not given), the survival was inactive: 91%.

Turning to `COc1ccc(CNC(=O)C(C)n2ccc3cc(S(=O)(=O)N4CCCC4)ccc32)cc1OC` (stereo not given), the survival is inactive: 80%.

For the molecule `Cc1cc(C)c(NC(=O)C2CCN(c3nnc(C)c4c(C)n(-c5ccccc5)nc34)CC2)c(C)c1`, the survival is inactive: 64%.

On to `COc1ccc(-n2ncc(C(=O)N3CCc4ccccc4C3)c2C2CCN(C(=O)OC(C)(C)C)CC2)cc1`, for which the survival is inactive: 63%.

For `Cc1cc(C)cc(NS(=O)(=O)c2ccc3c(c2)CCCN3C(=O)C2CCC2)c1`, the survival was inactive: 64%.

With `CCc1ccc2oc(C(=O)Nc3nonc3CC)c(C)c2c1`, the survival was inactive: 86%.

Consider `O=C(Nc1ccc(Br)cc1F)c1ncoc1-c1ccco1`, for which the survival is inactive: 89%.

`Cc1oc2ncn(C)c(=O)c2c1C(=O)NCCCN1CCCC(C)C1` (stereo not given): the survival is inactive: 87%.

As to `CCOc1cc(-c2nc(-c3ccc(Br)cc3)no2)cc(OCC)c1OCC`, the survival was inactive: 102%.

`O=C(COc1ccccc1)N(Cc1cccnc1)c1nc2ccc(F)cc2s1`: the survival is inactive: 89%.

As for `COc1ccc(-c2cc(C(F)(F)F)n3nc(C(=O)NCC45CC6CC(CC(C6)C4)C5)cc3n2)cc1`, the survival is inactive: 62%.

Regarding `COc1ccc(CNC(=O)CN(c2cc(C)cc(C)c2)S(=O)(=O)c2c(C)[nH]c(=O)[nH]c2=O)cc1`, the survival is inactive: 82%.

As to `COCCCNC(=O)c1ccc2c(=O)n(Cc3ccc(OC)cc3)c(=O)[nH]c2c1`, the survival was inactive: 72%.

In the case of `O=C(CN1C(=O)COc2ccc(S(=O)(=O)N3CCOCC3)cc21)N1CCN(c2ccccc2)CC1`, the survival was inactive: 125%.

In the case of `Cc1nc(-c2ccc(C)c(S(=O)(=O)N3CCC(C(=O)NCc4ccc(Cl)cc4)CC3)c2)no1`, the survival is inactive: 134%.

`COc1ccc(CCNC(=O)C2CCCN(c3nc4c(C)cc(C)cc4s3)C2)cc1OC` (stereo not given): the survival is inactive: 79%.

In the case of `Cc1ccc(S(=O)(=O)C(CNC(=O)c2ccccc2F)c2cccs2)cc1` (stereo not given), the survival is inactive: 73%.

On to `Cc1cccc(CSc2nc3c(c(=O)[nH]2)C(c2cccc(O)c2)CC(=O)N3)c1` (stereo not given), for which the survival was inactive: 107%.

Take `CCOC(=O)c1c(NC(=O)c2cc(C(C)C)on2)sc(C)c1C`: the survival was inactive: 87%.

With `COc1ccc(C2=C(C)C(=O)N(Cc3ccc(C(=O)NCc4ccc(C)cc4)cc3)S2(=O)=O)cc1`, the survival is inactive: 89%.

For the molecule `Cc1cccc(CN2CCN(CC(=O)NCc3ccc(Cl)cc3)C2=O)c1`, the survival is inactive: 83%.

Turning to `Cn1nc(C(=O)NCc2ccc(Cl)cc2)c2c1-c1ccccc1SC2`, the survival is inactive: 82%.

`CCCCC(CC)CNC(=O)c1ccc2c(=O)n(Cc3ccc(OC)cc3)c(=O)[nH]c2c1` (stereo not given): the survival was inactive: 97%.

Regarding `COc1ccc(CNC(=O)Cc2c(C)c3c(cc(C)c4c(C)c(C)oc43)oc2=O)cc1`, the survival was inactive: 102%.

`CCSc1ncc(Cl)c(C(=O)Nc2nc3ccc(OC)cc3s2)n1`: the survival is inactive: 103%.

As for `Cc1ccc(N(Cc2cccs2)C(=O)c2ccc(Br)o2)cc1`, the survival was inactive: 80%.

Consider `Cc1cc(=O)n2nc(N3CCC(C(=O)Nc4ccc(C)c(Cl)c4)CC3)sc2n1`, for which the survival is inactive: 94%.

For `O=C(NC(NC(=O)c1ccco1)c1ccc(Br)cc1)c1ccco1`, the survival is inactive: 109%.

For the molecule `CCc1nonc1NC(=O)c1oc2ccccc2c1C`, the survival is inactive: 92%.

As for `CC1(C)CC(=O)C=C(Nc2ccccc2F)C1`, the survival was inactive: 100%.

For `COc1ccc(CNC(=O)CCS(=O)(=O)c2ccc3c(c2)oc(=O)n3C)cc1`, the survival is inactive: 70%.

Consider `CCN(CC)C(=O)CSc1nnc(COc2ccc(C)cc2)n1N`, for which the survival was inactive: 114%.

For the molecule `CCOc1cc(C2c3c(-c4ccc(Br)cc4)n[nH]c3C(=O)N2c2ccc(Cl)cc2)ccc1O` (stereo not given), the survival is inactive: 42%.

Consider `O=C1C2c3ccccc3CCN2C(=O)CN1CCc1ccccc1` (stereo not given), for which the survival was inactive: 121%.

`CCOC(=O)N1CCC(NC(=O)c2ccc3c(c2)N(Cc2ccc(F)cc2)C(=O)c2ccccc2S3(=O)=O)CC1`: the survival is inactive: 139%.

Regarding `Cc1ccc(CNC(=O)c2ccc3c(O)c(S(=O)(=O)c4ccccc4)c(=O)[nH]c3c2)cc1`, the survival is inactive: 83%.

For the molecule `CCOc1ccc(NC(=O)C(NS(=O)(=O)c2ccc3c(c2)CCN3C(C)=O)C(C)C)cc1` (stereo not given), the survival is inactive: 124%.

In the case of `CCOc1ccccc1NC(=O)c1nnn(CC(=O)Nc2ccc(OC)c(OC)c2)c1N`, the survival is inactive: 81%.

Turning to `O=C(CSc1nc2ccccc2nc1Cc1ccc(Cl)cc1)NCCc1ccccc1`, the survival is inactive: 69%.

For `COc1ccc(/C=C2\CCOC2=O)cc1`, the survival was inactive: 109%.

In the case of `COc1ccc(OC)c(C(C)NC(=O)Cn2c(=O)cc(C)c3c(C)nn(-c4ccc(C)cc4)c32)c1` (stereo not given), the survival was inactive: 82%.

On to `COc1ccc(CNC(=O)c2nn(-c3ccccc3C)nc2CO)cc1`, for which the survival is inactive: 89%.

Regarding `Cc1ccc(C)c(N2CCN(Cc3csc(C)c3C)CC2)c1`, the survival is inactive: 82%.

As for `COc1ccccc1-c1cc(C(=O)N2CCCCC2C)no1` (stereo not given), the survival is inactive: 27%.

For the molecule `CCCCC(=O)Nc1ccc2nc(SCC(=O)N3CCCC3)sc2c1`, the survival was inactive: 88%.

`CCc1ccc(Nc2ncnc3c2cnn3-c2cc(Cl)ccc2C)cc1`: the survival is inactive: 90%.

`COc1cccc(CNC(=O)C(NS(=O)(=O)c2ccc3c(c2)CCN3C(C)=O)C(C)C)c1` (stereo not given): the survival is inactive: 84%.

As for `CCOc1ccccc1CC1C(=O)Nc2ccc(Br)cc21` (stereo not given), the survival was inactive: 73%.

`Cc1cccc(-c2nc(Cn3c(=O)cc(-c4ccccc4)c4c(C)nn(C)c43)c(C)o2)c1`: the survival is active: -6%.

As for `CCn1cc(C(=O)OCC(=O)Nc2ccc(F)cc2F)c(=O)c2ccc(C)nc21`, the survival was inactive: 144%.

Turning to `COC(F)(C(=O)NC12CC3CC(CC(C3)C1)C2)C(F)(F)F` (stereo not given), the survival was inactive: 121%.

Take `COC(=O)c1ccc(Cn2c(=O)cc(C(F)(F)F)c3c(C)nn(C)c32)cc1`: the survival was inactive: 69%.

Take `O=C(Cn1c2ncccc2c(=O)n1-c1ccccc1)Nc1ccc(F)c(F)c1`: the survival is inactive: 153%.

As for `O=C(NCc1ccc(Cl)cc1)C1CCCN(c2nc3ccccc3n3cccc23)C1` (stereo not given), the survival was inactive: 105%.

Regarding `CCOc1ccc(S(=O)(=O)N(CC(=O)NCCSc2ccccc2)c2ccccc2)cc1`, the survival is inactive: 94%.

Regarding `CCN(c1ccc(OC)cc1)S(=O)(=O)c1ccc2[nH]c(=O)ccc2c1`, the survival was inactive: 72%.

With `Cc1ccccc1Cn1c(=O)n(CCc2ccccc2)c(=O)c2ccccc21`, the survival is active: 4%.

In the case of `Cc1cc(C)nc(N2CCCC(C)C2)n1` (stereo not given), the survival is inactive: 99%.

Regarding `Cc1cc(N2CCCCC2)nc2ccc(NC(=O)/C=C/c3ccccc3Cl)cc12`, the survival was inactive: 73%.

Take `O=C(Nc1ccccc1C(=O)OCc1cc(=O)n2c3c(sc2n1)CCCC3)c1cccc(Cl)c1`: the survival was inactive: 73%.

As to `COC(=O)c1c(-c2ccc(Cl)cc2)noc1N1CCN(c2cccc(C(F)(F)F)c2)CC1`, the survival was inactive: 70%.

Consider `CCc1ccccc1NC(=O)NCc1ccc2c(c1)CCN2C(=O)c1ccccc1`, for which the survival was inactive: 140%.

For the molecule `NNC(=O)CSc1c(-c2cccs2)[nH]c2ccccc12`, the survival was inactive: 105%.

As for `Cc1cc2c(c(=O)o1)C(C(C)C)C(C#N)=C(N)O2` (stereo not given), the survival was inactive: 100%.

Take `CCCn1ccc2c(OCC(=O)NCc3ccccc3Cl)cccc2c1=O`: the survival is inactive: 130%.

In the case of `O=C(CSc1nccn1Cc1ccccc1)NCc1ccccc1Cl`, the survival was inactive: 83%.

Turning to `CCOC(=O)CC(NC(=O)N1CCC(CN2CCC(C)CC2)CC1)c1ccccc1` (stereo not given), the survival was inactive: 75%.

With `CC(=O)NC1CCN(C(=O)Nc2ccccc2)CC1`, the survival is inactive: 105%.

As for `Cc1cc(C)nc(NS(=O)(=O)c2ccc(NC(=O)COc3ccc(C(C)(C)C)cc3)cc2)n1`, the survival is inactive: 62%.

Consider `CN(C)c1ccc(/C=C2/SC(=Nc3ccccc3)NC2=O)cc1`, for which the survival is inactive: 116%.

For the molecule `COC(=O)c1nc(C(=O)OC)c(C(=O)OC)nc1C(=O)OC`, the survival is inactive: 105%.

Turning to `Cc1cccc(C)c1Nc1c(-c2ccsc2)nc2ccc(Cl)cn12`, the survival is inactive: 84%.

For `CC(C)Cn1cc(NC(=O)N2CCN(c3ccccc3F)CC2)c2ccccc2c1=O`, the survival is inactive: 75%.

As for `O=S(=O)(c1ccccc1)N1CCN(Cc2ccccc2)CC1`, the survival was inactive: 100%.

With `COc1ccc(-c2cn3nc(N4CCCC(C(=O)NCc5ccccc5Cl)C4)sc3n2)cc1` (stereo not given), the survival is inactive: 75%.

Regarding `Cc1cccc(CNC(=O)CCn2ccc3cc(S(=O)(=O)N4CCCC4)ccc32)c1`, the survival was inactive: 76%.

As to `COc1ccc(OC)c(CCNC(=O)c2cnn(-c3ccccc3)c2C2CCN(C(=O)OC(C)(C)C)CC2)c1`, the survival is inactive: 102%.

Turning to `COC(=O)c1cc2oc3ccccc3c2n1Cc1cc(C)ccc1C`, the survival is inactive: 137%.

On to `O=c1c(N2CCN(c3cccc(C(F)(F)F)c3)CC2)csc2ccc(Cl)cc12`, for which the survival was inactive: 74%.
